# Screen size: about 260,000 compounds; about 890 (0.34%) were called active. This list was built around the results that the source calls inconclusive (neither active nor inactive); the mix of calls is not that of the screen. Calls come from the whole dose curve; as a rule, active = well fitted activation curve with a large enough effect; inconclusive = small, poorly fitted or top-dose-only effect; inactive = no such curve, though single readings can be large or run the other way. Potencies of inconclusive entries are left out as doubtful fits.
# Target: Pyruvate kinase PKM (Homo sapiens) (UniProt P14618)
# Sequence of UniProt P14618 (P14618 whole entry, looked up, canonical isoform): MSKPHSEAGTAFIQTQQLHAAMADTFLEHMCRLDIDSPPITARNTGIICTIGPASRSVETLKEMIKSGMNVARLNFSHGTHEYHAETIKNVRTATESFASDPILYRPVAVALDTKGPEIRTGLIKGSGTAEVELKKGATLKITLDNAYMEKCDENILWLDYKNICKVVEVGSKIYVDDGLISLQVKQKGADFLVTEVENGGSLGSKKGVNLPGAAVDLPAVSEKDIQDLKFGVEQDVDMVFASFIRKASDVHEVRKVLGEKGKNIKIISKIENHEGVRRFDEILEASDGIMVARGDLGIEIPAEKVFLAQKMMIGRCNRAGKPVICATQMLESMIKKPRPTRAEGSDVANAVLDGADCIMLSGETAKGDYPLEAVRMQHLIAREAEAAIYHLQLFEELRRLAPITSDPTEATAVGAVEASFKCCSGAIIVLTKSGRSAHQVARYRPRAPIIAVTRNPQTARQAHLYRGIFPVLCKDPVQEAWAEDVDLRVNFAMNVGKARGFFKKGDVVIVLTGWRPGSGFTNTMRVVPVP
# Assay: qHTS Assay for Activators of Human Muscle isoform 2 Pyruvate Kinase; note: nearly all actives have a fitted effect of over 55% in size
# Conditions: purified PKM2, Kinase-Glo ATP luminescence; Potency: activation; activation: at 57.5 µM (top of the series), 0% is enzyme alone, no compound
# Outline: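 ATP formation by purified human PK-M2, quantified via coupled luciferase luminescence after 1 h at room temperature with 0.1 mM ADP and 0.5 mM PEP final.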
# % is set by controls: 0 for no effect and ±100 for the full control effect; potency is the fitted concentration of half-maximal effect; tags give direction and shape of the fitted curve.
SMILES,Potency,activation
COc1ccc(/C=N/Nc2nc(-c3ccc(C)cc3)c(NC(C)=O)s2)cc1,"inconclusive [rising, partial curve]",–
CCCCC1(C)OC(=O)C(=Cc2ccc(-c3ccc(Cl)c(C(=O)O)c3)o2)C(=O)O1 (centres undefined),"inconclusive [rising, single point]",–
O=[N+]([O-])c1cc(Cl)c2cccnc2c1O,"inconclusive [rising, single point]",–
CS(=O)(=O)Nc1ccc(C(=O)NCc2ccc3c(c2)OCO3)cc1,"inconclusive [rising, full curve]",–
O=C(CCc1nnc(CCCc2ccccc2)o1)N1CCCCCC1,"inconclusive [rising, single point]",–
CCN(CC)C(=O)CC(c1ccc(F)cc1)c1ccco1 (centres undefined),"inconclusive [rising, single point]",–
COc1ccc(C2c3c(ncn(CCN4CCOCC4)c3=N)Oc3ccc4ccccc4c32)cc1OC (centres undefined),active: 20 µM,–
O=C(NC1CSC/C1=N\O)c1ccccc1 (centres undefined),"inconclusive [rising, full curve]",–
Cc1c(Cc2ccccc2)sc(NC(=O)/C=C/c2cccc3ccccc23)c1C(N)=O,–,inactive: 0.405%
COc1ccccc1Oc1ccc(N/C=C/C(=O)c2ccc(C)o2)cc1,"inconclusive [rising, single point]",–
CCc1ccc(NC(=O)CSc2nnc(C)c(=O)n2N)cc1,"inconclusive [rising, single point]",–
CCCN(Cc1ccccc1)C(=S)Nc1ccc(C(C)=O)cc1,–,inactive: 2.61%
CC(C)(C)C(=O)N1CCN(C(=O)c2ccco2)CC1,–,inactive: 6.07%
O=S(=O)(c1ccccc1)N1CC=C(c2ccccc2)CC1,"inconclusive [rising, partial curve]",–
COC(=O)c1scc(C)c1NC(=O)/C=C/C(=O)O,"inconclusive [rising, single point]",–
CC1(C)CC(=O)C2=C(C1)OC(N)=C(C#N)C2C#Cc1ccccc1 (centres undefined),"inconclusive [rising, single point]",–
CC1CCc2c(sc3nc(CN4CCOCC4)nc(NS(=O)(=O)c4cccc([N+](=O)[O-])c4)c23)C1 (centres undefined),"inconclusive [rising, single point]",–
COc1ccc(C(=O)Oc2c(CN3CCOCC3)cc(Cl)c3cccnc23)cc1,"inconclusive [rising, full curve, poor fit]",–
Cc1cc(C)nc(NC(=O)CSc2nn(-c3ccccc3)c(=S)s2)n1,"inconclusive [rising, single point]",–
Oc1ccc(Cl)cc1CNc1ccc(Br)cn1,"inconclusive [rising, single point]",–
CC(=O)N(Cc1ccco1)Cc1cc2cccc(C)c2n2nnnc12,"inconclusive [rising, single point]",–
COc1ccc(C2CC(c3ccc([N+](=O)[O-])cc3)=NN2C(C)=O)cc1 (centres undefined),active: 12.6 µM,–

SMILES,Potency,activation
CC(=O)N1N=C(c2ccncc2)CC1c1ccccc1O (centres undefined),active: 4.47 µM,–
COc1ccccc1COC(=O)N/C=C/c1ccco1,active: 17.8 µM,–
CC1C/C(=C/c2ccco2)C(=O)/C(=C/c2ccco2)C1 (centres undefined),"inconclusive [rising, partial curve]",–
COc1ccc(C(=O)/C=C/c2cc(C(=O)O)cc3c2OCOC3)c(O)c1,–,inactive: -4.82%
CC(=O)Oc1ccc(C(=O)[C@H]2[C@H]3C(=O)N(c4ccc(C)cc4C)C(=O)[C@H]3[C@@H]3C=CC=NN32)cc1,"inconclusive [rising, single point]",–
COc1ccc(-n2ccc(=O)c(C(=O)Nc3ccc(S(=O)(=O)Nc4nccs4)cc3)n2)cc1,"inconclusive [rising, single point]",–
O=[N+]([O-])c1c(NCCO)cc(Sc2nc3ccccc3s2)c2nonc12,"inconclusive [rising, full curve, poor fit]",–
O=S(=O)(c1ccc2c(c1)OCO2)N1CCN(c2nnnn2-c2ccccc2)CC1,"inconclusive [rising, full curve, poor fit]",–
COc1ccc(CCN2CC(C(=O)NCc3ccco3)CC2=O)cc1OC (centres undefined),"inconclusive [rising, partial curve]",–
COC(=O)c1c(NC(=O)Cc2cccs2)sc(C(=O)N2CCCCC2)c1C,–,inactive: -2.08%
O=C(N/N=C/c1ccc[nH]1)c1cccc(Br)c1,–,inactive: -2.83%
Cc1nc2cc(C(F)(F)F)ccc2n1CCNc1nc(-c2cc(Cl)c(N)c(Cl)c2)cs1,"inconclusive [rising, partial curve]",–
COc1ccc(NC(=O)COC(=O)CCc2cc(OC)c(OC)c(OC)c2)c([N+](=O)[O-])c1,"inconclusive [rising, partial curve]",–
CC(C)(C)NC(=O)C1CCC(CNc2c(N3CCCCC3)c(=O)c2=O)CC1 (centres undefined),"inconclusive [rising, single point]",–
Cc1ccc(CSc2ncnc3c2cnn3Cc2ccccc2)cc1,"inconclusive [rising, partial curve]",–
O=c1[nH]c(Cc2ccccc2)nc2c1oc1ccccc12,"inconclusive [rising, partial curve]",–
C/C(=C\C(=O)c1cccnc1)Nc1ccc(O)cc1,–,inactive: 1.95%
O=C(CSc1nc2ccc(Cl)cc2[nH]1)c1cccs1,"inconclusive [rising, partial curve]",–
Cc1cc2c(cc1S(=O)(=O)Nc1cccc(C)c1C)n(C)c(=O)c(=O)n2C,active: 0.501 µM,–
Cc1ccc(S(=O)(=O)N2CCCC2C(=O)NCc2ccco2)cc1 (centres undefined),"inconclusive [rising, partial curve]",–
NS(=O)(=O)c1cccc(NC(=O)CSc2nnnn2-c2ccccc2)c1,"inconclusive [rising, partial curve]",–
C#CCOC(=O)Nc1ccc(=O)n(Cc2c(Cl)cccc2Cl)c1,"inconclusive [rising, partial curve]",–
